According to article PMC7819943, “Rice protein-binding microarrays: a tool to detect cis-acting elements near promoter regions in rice”:
Some of the results follow.

Target: T1, OsWOX13 (Oryza sativa, UniProt Q5QMM3 1-267)
T1 sequence: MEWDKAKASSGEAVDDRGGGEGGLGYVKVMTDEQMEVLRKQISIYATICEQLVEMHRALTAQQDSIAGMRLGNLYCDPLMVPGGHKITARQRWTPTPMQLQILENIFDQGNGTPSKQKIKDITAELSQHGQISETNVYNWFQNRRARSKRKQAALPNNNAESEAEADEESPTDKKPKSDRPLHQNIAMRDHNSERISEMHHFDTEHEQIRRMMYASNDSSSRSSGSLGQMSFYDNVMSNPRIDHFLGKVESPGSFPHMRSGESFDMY
Test: protein-binding microarray (RPBM); PBS, 2% BSA, 51.3 ng/ul salmon testes DNA, 50 uM zinc acetate, 200 nM TF, 25 C, 1 h; high values mean tight binding
Conditions: protein: recombinant; tags: N-terminal polyhistidine and DsRed monomer fusion (pET32a); label: CyDye5-dUTP incorporated in the synthesized complementary strand; 3' TTTTT single-stranded linker to array surface; dsDNA, one strand shown
Outline: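 Binding signal is defined as the fluorescence intensity of each feature in arbitrary units, read on an Axon 4000B scanner. Transcription factors with N-terminal polyhistidine and DsRed fusions came from E. coli BL21-CodonPlus and were purified on Ni–NTA. They were incubated at 200 nM for 1 h at 25 °C on a custom Agilent array that had been made double-stranded with Cy5-dUTP, with 50 µM zinc acetate present, and the array was washed.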

For “AACAAGTAATTTAAATCGTACAAGAATCAAAAGGTCCGAGCGGAGTCACCTAGTGCAG”, which binding signal is on record?
Its binding signal is 6870 fluorescence intensity (a.u.).

Which binding signal does the source give for “AATAAAATTGATCACCTATAGCTAGCTAGTAGCTAGTGCCCGGAGTCACCTAGTGCAG” here?
The binding signal was 13100 fluorescence intensity (a.u.).

For “TGGAGTAATTAGGCTTAAAAGATTCGTTTCGTAATTTGCACGGAGTCACCTAGTGCAG”, which binding signal is on record?
Its binding signal is 15600 fluorescence intensity (a.u.).

How did the binding signal turn out when “CTTAAATTTAATGCTACTTATTTCACACGATGTCTTGGATCGGAGTCACCTAGTGCAG” was run?
The binding signal was 23800 fluorescence intensity (a.u.).

“CCATGATTAGTCATAAGTGTTACAGTAACCGACATATGCTCGGAGTCACCTAGTGCAG” was tested. Which binding signal did it give?
Its binding signal is 32200 fluorescence intensity (a.u.).

For “AAACAGATTAAAATTATCTCGGTTTCTATTAGCATGTTTTCGGAGTCACCTAGTGCAG”, which binding signal is on record?
Its binding signal is 8660 fluorescence intensity (a.u.).

With “ATCATTCAGGTACATCAATTACCAACCACTGAATGTTTGTCGGAGTCACCTAGTGCAG” as the sequence, how does the binding signal read?
Its binding signal is 3780 fluorescence intensity (a.u.).

For “CACAAATTGAAATACCATGTTTATCGACTTCAACCCAAGTCGGAGTCACCTAGTGCAG”, which binding signal is on record?
The binding signal was 41000 fluorescence intensity (a.u.).

Which binding signal does the source give for “AGCAAATAGATCTAATCTAACGGTGTAAATAACGGGTCCACGGAGTCACCTAGTGCAG” here?
Its binding signal is 7830 fluorescence intensity (a.u.).

Which binding signal does the source give for “ATGACAAGACTCACCACTAATTAATTAATGACACACCTGGCGGAGTCACCTAGTGCAG” here?
Its binding signal is 19600 fluorescence intensity (a.u.).

How did the binding signal turn out when “ACTATGATTGTACAAACACCGGCATGCACCCACCTGGCATCGGAGTCACCTAGTGCAG” was run?
The binding signal was 24500 fluorescence intensity (a.u.).

For “ATGTGTTCAGTTAACGCCAAAATTAAAAGTTTGATTAGAACGGAGTCACCTAGTGCAG”, which binding signal is on record?
The binding signal was 7050 fluorescence intensity (a.u.).

For “CATGTCTCAATAAATTGATCGTTGGCAAAATCGGTTAGTCCGGAGTCACCTAGTGCAG”, which binding signal is on record?
Its binding signal is 4980 fluorescence intensity (a.u.).

For “CCGTGAAATAATCTAATTAAGAGAAGGCCCTCGTGCCGCTCGGAGTCACCTAGTGCAG”, which binding signal is on record?
The binding signal was 12200 fluorescence intensity (a.u.).

For “GTTAATTTGATCCATACCACTGCAATTTTACCTATTCAGACGGAGTCACCTAGTGCAG”, which binding signal is on record?
The binding signal was 17900 fluorescence intensity (a.u.).

With “CAAGCTAATAATAATTAATTAATAATCTTCTGTCTGCTAACGGAGTCACCTAGTGCAG” as the sequence, how does the binding signal read?
Its binding signal is 16000 fluorescence intensity (a.u.).

“CATGATTTCAACATGATCCCATAATATAACAACACACCTCCGGAGTCACCTAGTGCAG” was tested. Which binding signal did it give?
The binding signal was 12300 fluorescence intensity (a.u.).

Which binding signal does the source give for “CAAGCTTAATTAAGCTCATCGTCGCTCAGCATCAAGAAGCCGGAGTCACCTAGTGCAG” here?
The binding signal was 6430 fluorescence intensity (a.u.).

For “TTATAAAAGTTTAATCTCAATCATATCCAAAACGTTAATTCGGAGTCACCTAGTGCAG”, which binding signal is on record?
The binding signal was 4580 fluorescence intensity (a.u.).

“TTTGATTATGCTTGTCATTTCCATTCATTTGCTCATATACCGGAGTCACCTAGTGCAG” was tested. Which binding signal did it give?
The binding signal was 22100 fluorescence intensity (a.u.).

How did the binding signal turn out when “TCTGATTATTAATTATCACTTTATCAGTCTCCAACGTTTACGGAGTCACCTAGTGCAG” was run?
Its binding signal is 40900 fluorescence intensity (a.u.).

Which binding signal does the source give for “TTGATTTATTTGATAGGATGTAGTATATAACCAGCTACATCGGAGTCACCTAGTGCAG” here?
The binding signal was 20900 fluorescence intensity (a.u.).

Which binding signal does the source give for “GTCAAAATTTTGACAACTATACCAAAATTTTAGCATTGTCCGGAGTCACCTAGTGCAG” here?
The binding signal was 5870 fluorescence intensity (a.u.).

How did the binding signal turn out when “TCCTTGATTTAATGTTGTCACCATTGACCTTATCACACATCGGAGTCACCTAGTGCAG” was run?
The binding signal was 40700 fluorescence intensity (a.u.).

For “CTCCACTAATCCTACCAATTAACGAGTCGTACTCAATAATCGGAGTCACCTAGTGCAG”, which binding signal is on record?
The binding signal was 7550 fluorescence intensity (a.u.).

With “AAAGTAATTTCTTCAATAACTAACGGTCAAACTAATGGTCCGGAGTCACCTAGTGCAG” as the sequence, how does the binding signal read?
The binding signal was 8690 fluorescence intensity (a.u.).

“ACTAATTAACTATCTTTTAGCACTACATTATTTGATCCTCCGGAGTCACCTAGTGCAG” was tested. Which binding signal did it give?
The binding signal was 34200 fluorescence intensity (a.u.).

How did the binding signal turn out when “ACATGGTCGATAATTGAAACCGAATGTAGCCAGGCCAGGCCGGAGTCACCTAGTGCAG” was run?
The binding signal was 12600 fluorescence intensity (a.u.).

“AGGGCTTAATTATTGCCTATTATATTTAGACTCAAAATCTCGGAGTCACCTAGTGCAG” was tested. Which binding signal did it give?
Its binding signal is 12200 fluorescence intensity (a.u.).

With “AATCCATGATTATCACATATTTACTGTAGAACTACATTGTCGGAGTCACCTAGTGCAG” as the sequence, how does the binding signal read?
The binding signal was 11200 fluorescence intensity (a.u.).

“CTTGATTTATTATTTACCATGTTAGAAATGTTTATTTATACGGAGTCACCTAGTGCAG” was tested. Which binding signal did it give?
Its binding signal is 29600 fluorescence intensity (a.u.).

For “GGTAATTGGAAGCCTATGCACGTGGGCGGGGAGGCGTCGGCGGAGTCACCTAGTGCAG”, which binding signal is on record?
The binding signal was 19800 fluorescence intensity (a.u.).

For “ATGATGGAACAGTGATGTGATCGGCGAGTTGTGTCGCGAGCGGAGTCACCTAGTGCAG”, which binding signal is on record?
The binding signal was 8430 fluorescence intensity (a.u.).

How did the binding signal turn out when “GAGACGAATTTATTAAGCCTAATTAATCCATCATTAGCACCGGAGTCACCTAGTGCAG” was run?
Its binding signal is 7210 fluorescence intensity (a.u.).

Which binding signal does the source give for “ACAATGAAGCCAATCACCATGATTTCGATTCTAAGAGATCCGGAGTCACCTAGTGCAG” here?
The binding signal was 13500 fluorescence intensity (a.u.).

“CGGTTGAGAGAGCTAGCTGATTGGTTTTGATGGGAGGACCCGGAGTCACCTAGTGCAG” was tested. Which binding signal did it give?
The binding signal was 7540 fluorescence intensity (a.u.).

Which binding signal does the source give for “AGGCTTTTGTGATAGATTGTACGGTAGGCTATTTTGGCTACGGAGTCACCTAGTGCAG” here?
Its binding signal is 3470 fluorescence intensity (a.u.).

Which binding signal does the source give for “TATGATTACATATATAACATTTGAAGAAATCAATTTATTCCGGAGTCACCTAGTGCAG” here?
The binding signal was 7560 fluorescence intensity (a.u.).

How did the binding signal turn out when “ACTGTAATGGTGATTTAATCCAACTGCGTTTTCGAGGAAACGGAGTCACCTAGTGCAG” was run?
Its binding signal is 5820 fluorescence intensity (a.u.).

Which binding signal does the source give for “TTATGTAATTTGTTTTGTTATTAGACTGTTCAATACTTTACGGAGTCACCTAGTGCAG” here?
Its binding signal is 8670 fluorescence intensity (a.u.).

How did the binding signal turn out when “ACATAAACATAGAAGTTAAAATTTAACTTCTACAAGTTGTCGGAGTCACCTAGTGCAG” was run?
Its binding signal is 3220 fluorescence intensity (a.u.).

With “GAATGGTCCAACAAGGAGACTGAGGAATGGTCAACACATTCGGAGTCACCTAGTGCAG” as the sequence, how does the binding signal read?
The binding signal was 59700 fluorescence intensity (a.u.).

For “AGGAGTAAATCATTTACATCGACAACGGTAGGAGTGGGATCGGAGTCACCTAGTGCAG”, which binding signal is on record?
Its binding signal is 4330 fluorescence intensity (a.u.).

With “ATATATATATATATATATATGTTGTATGGGCATTGTTAAACGGAGTCACCTAGTGCAG” as the sequence, how does the binding signal read?
The binding signal was 12200 fluorescence intensity (a.u.).

“TTTCAGTTATTTCCTAATTATATTTCTATATGGACTTAGTCGGAGTCACCTAGTGCAG” was tested. Which binding signal did it give?
The binding signal was 9980 fluorescence intensity (a.u.).

How did the binding signal turn out when “TCGATTGACTGGACGAGGAATAGTAACCCTGCACATTGTGCGGAGTCACCTAGTGCAG” was run?
The binding signal was 44100 fluorescence intensity (a.u.).

“CTTGACATGTCTACTAACTGTCCATCAATAAACTTGTGATCGGAGTCACCTAGTGCAG” was tested. Which binding signal did it give?
The binding signal was 15200 fluorescence intensity (a.u.).

“CTGACAAAATTACATACCAGACGTGTATCTCCAACATTAACGGAGTCACCTAGTGCAG” was tested. Which binding signal did it give?
Its binding signal is 3430 fluorescence intensity (a.u.).

“ATCTAATATTGAATATAATTTGATAATATGTATGTTTTGTCGGAGTCACCTAGTGCAG” was tested. Which binding signal did it give?
The binding signal was 3790 fluorescence intensity (a.u.).

With “GCCTAATTAATCCGTTATTAGCAAATATTTACTGTAGCACCGGAGTCACCTAGTGCAG” as the sequence, how does the binding signal read?
The binding signal was 35900 fluorescence intensity (a.u.).

For “CACATGCAAATTATCGTGCGTCTGTATGTGGCATGCTTGTCGGAGTCACCTAGTGCAG”, which binding signal is on record?
The binding signal was 4230 fluorescence intensity (a.u.).

With “AGTGAAGGTAATTATCTGCCGCACTGCTGATGCTAGCAAACGGAGTCACCTAGTGCAG” as the sequence, how does the binding signal read?
Its binding signal is 3380 fluorescence intensity (a.u.).

With “GTGGATTGGACAGACGCGGAGTGAAACCCGGCCCACATAACGGAGTCACCTAGTGCAG” as the sequence, how does the binding signal read?
The binding signal was 4820 fluorescence intensity (a.u.).

Which binding signal does the source give for “AAAATCTGACAAATTTTGACCGAGAAATCTGTCACCAGATCGGAGTCACCTAGTGCAG” here?
The binding signal was 3450 fluorescence intensity (a.u.).
